The supplement of paper PMC11417369
± gives the standard deviation of the averaged measurements. This is one part of the list.

Test system: PfAP2-LT AP2 domain (GST-tagged)
Test: gcPBM binding intensity (ln(normalized median fluorescence intensity)); higher = stronger DNA binding
Method in brief: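 In this array assay, P. falciparum DNA-binding domains with a GST tag, expressed in E. coli, were applied for 1 h to primer-extended double-stranded 36-bp intergenic genomic probes and negative controls on an Agilent 4 × 180k array. Bound protein was visualised with Alexa488 anti-GST antibody at 488 nm. Binding intensity is the highest Masliner-normalised natural-log median intensity across replicate spots of either probe orientation.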

| Sequence | gcPBM binding intensity (ln) |
| --- | --- |
| AGAAAACTCGCTTTTCTAAATCTCAAAAAAAAAAAA [XGTACX_negctrl_site94] | 8.29 ± 0.48 |
| ACAAAAAAAAATATGTTAACTATATATATATATATA [CACACA_negctrl_site346] | 9.5 ± 0.014 |
| AATTGGGAACTGTAATGTACATATATTGAAAGTATA [XGTACX_site7081] | 8.82 ± 0.51 |
| TATTTATTTGTACATATACACACTTAAATATGTTTA [CACACA_site3902] | 8.92 ± 0.42 |
| TAATTAACCTATGCATTCATATAGATACATAAATAT [CACACA_negctrl_site885] | 8.72 ± 0.51 |
| ACCAAATTATCAAATGGTACACATAAAATAATAAAA [XGTACX_site865] | 8.81 ± 0.46 |
| TTTTGTTGTATGATAATTCTTTTATCAATATGTCTT [TGCATGCA_negctrl_site567] | 8.73 ± 0.54 |
| GTTTCTATTCACATTTTACACACGTCCATCGCATTT [CACACA_site9142] | 9.54 ± 0.35 |
| GAACCATTTTTTGGTATACACACGTAATTATAGAAT [CACACA_site1851] | 8.89 ± 0.4 |
| TACAAAAAATTATGGAGTACATATATAATATACAAT [XGTACX_site1004] | 8.78 ± 0.42 |
| AGATCATAATATTATACACACATTATGTATATGTAA [CACACA_site1490] | 8.96 ± 0.35 |
| TGAATACATAAATATAGTACATATATATATATATTA [XGTACX_site8756] | 8.89 ± 0.39 |
| TATAATATTATTTGAAGTACAAACATAAAAGAATTA [XGTACX_site3161] | 8.6 ± 0.45 |
| ATATATATATATATGGTGCATGAAAATTTACTTTGA | 9.38 ± 0.12 |
| ATATACTCATTTAATACACACAAAGAGAAAATTAAT [CACACA_site1923] | 8.93 ± 0.46 |
| GATATTTGTTCATATACACACTTTTGATAAAATATG [CACACA_site4807] | 8.85 ± 0.4 |
| TTTTTTTTTTTTGGTAGTACATAATATTAATATAAT [XGTACX_site4422] | 8.46 ± 0.42 |
| TATATTTTCCTGCAAACACACATATAAATGGGTAGA [CACACA_site4451] | 8.73 ± 0.35 |
| TTTATATAATTTTTTTGTACATATATATGAATACAT [XGTACX_site2316] | 8.73 ± 0.48 |
| TAATTTTTTTTTTTTTTTCATTCTTTTCCTTTGATT [CACACA_negctrl_site1365] | 8.39 ± 0.64 |
| ATAGTACAACAGGTTCTTGACAAACAATATGAATGT [GTGCAC_negctrl_site442] | 9.04 ± 0.52 |
| ACATATAAGATTATGTGTCCACAAAAAAATAAAACA [XGTACX_site2867] | 8.78 ± 0.4 |

| Sequence | gcPBM binding intensity (ln) |
| --- | --- |
| TTTTTAATAACACTTTTGAAAAATAAAATAAAATAA [CACACA_negctrl_site821] | 7.97 ± 0.38 |
| TTTTATGTTCTTAATGCACACTTATAAGTATCTTAT [CACACA_site4895] | 8.98 ± 0.49 |
| CATATCTCAATTTATGCATGCAGGATTTTTCTAATA [TGCATGCA_site516] | 8.79 ± 0.35 |
| TTTTTTTTTTTTTGGTGTACATTTATAAAAAAAAAA [XGTACX_site8368] | 8.07 ± 0.29 |
| ACACAAAAAAAAAAAAAAAAAAAAAAAAAAAAGGAA [CACACA_negctrl_site1162] | 8.71 ± 0.7 |
| AATATGTACAGACATACACACATATATATATATATA [CACACA_site1222] | 9.97 ± 0.14 |
| GAATTCCTTTGTGTATGTACATAATGATATTATTTT [XGTACX_site7369] | 8.98 ± 0.35 |
| TGATCAAATAAGTTTGCATGTCAACAATGCATATAT [TGCATGCA_site1025] | 8.7 ± 0.34 |
| CCCCTTGTGGATTCTACACACAAAAAGTCGTCAAAA [CACACA_site821] | 9.37 ± 0.28 |
| TAATTTTTTAAACACACACACATATATATATATATA [CACACA_site4230] | 9.57 ± 0.25 |
| ATATATATAAAAGAAACAACATTTATTCAAAAGGTA [CACACA_negctrl_site749] | 8.73 ± 0.38 |
| TTATTCTTTTAATATACACACTTTGTCTTTTCGCGC [CACACA_site5525] | 9.13 ± 0.56 |
| ATATAATTCAAATACAGTACATATACAATATATACA [XGTACX_site1191] | 8.66 ± 0.46 |
| ATATTATCATTTTTTTTAATGGAAAAAAAAAAAAAA [CACACA_negctrl_site1298] | 8.12 ± 0.35 |
| TACTTTTATAAAAATTTTATCAAATTCTATATATGT [TGCATGCA_negctrl_site308] | 8.62 ± 0.38 |
| TTTTAAATTTAGTGTAGTACACTTTTTTCAAATATA [XGTACX_site4659] | 8.47 ± 0.49 |
| TATTTTTCTTTTTAAAAATATATCACATGAACATTA [XGTACX_negctrl_site183] | 8.29 ± 0.45 |
| AATAACAAAATAGGCACACGCACATATATATATATA [CACACA_site1497] | 9.79 ± 0.19 |
| ATTCAAAAGATGTATACACACATGTGGATAATATAA [CACACA_site2443] | 9.21 ± 0.48 |
| GCACCCTGTATGAATGCACACATTCATAGAATTGCT [CACACA_site5475] | 9.09 ± 0.3 |
| TACATATTTATATACACACACACACGGATATTTATA [CACACA_site7239] | 9.87 ± 0.45 |
| ATAAAAAAAAAAAAAAAATATATATATATATATATA [XGTACX_negctrl_site424] | 9.575 ± 0.0071 |

| Sequence | gcPBM binding intensity (ln) |
| --- | --- |
| TATATACTTTTTAATCACACTTCTTTAAAAAAAGTA [CACACA_negctrl_site1380] | 8.2 ± 0.28 |
| TGTAATAACGTTATAAAAAGTATAAAAAAAAAAAAA [CACACA_negctrl_site943] | 8.71 ± 0.46 |
| TTATTTTTATTATTTTGTATATATATTTATAGAAAA [XGTACX_negctrl_site465] | 8.23 ± 0.33 |
| TTTTAGGTCTGAATGTGTACTAAATAATATAAGTAT [XGTACX_site6554] | 8.55 ± 0.38 |
| TACCTAATATGTTATACACACATTAGAAGTACATAT [CACACA_site5375] | 9.05 ± 0.33 |
| CAAAATTTTTATAAGTCACACATTATCTAAGCTTAT [CACACA_site5747] | 8.63 ± 0.51 |
| CACACAAAGGAATATACACACATATTTATATTTATA [CACACA_site7841] | 9.21 ± 0.44 |
| AATAAATAAATAAATTAATAAATTAATAAATTAATA [GTGCAC_negctrl_site37] | 8.39 ± 0.58 |
| GTATATAATTTTTTATGTACTAAATTATATGTTTTT [XGTACX_site4907] | 8.7 ± 0.49 |
| ATCTATTTGTAAAGGGTGCGCATATCAATAAAAAAT [GTGCAC_site9503] | 8.95 ± 0.39 |
| TATACCTTTGCGTGTGCATGCGCTTATATATATTTT [TGCATGCA_site152] | 9.37 ± 0.29 |
| TTTATGTGTATGTTTACACACATAAAAAAATATATG [CACACA_site3039] | 9.08 ± 0.35 |
| ACAATTCCCGTATGATGTACTTTTTTCCACTTTTTC [XGTACX_site1811] | 9.06 ± 0.47 |
| TATTTTTAATATTTTGCATGCAGTATTTTATAAAAT [TGCATGCA_site250] | 8.8 ± 0.34 |
| TACTAACATAAAGACACACACCACATAAAATAAATA [CACACA_site7663] | 9.6 ± 0.33 |
| TATGAACACAGACACACACACAAAAAAAAAAAAAAA [CACACA_site7037] | 9.18 ± 0.56 |
| GGAAGAAAACTTAGGTGTACATATAAAACGATATAA [XGTACX_site3118] | 8.89 ± 0.52 |
| ATAGTATACAGACACACACACACACCGATATATATA [CACACA_site8511] | 10.1 ± 0.13 |
| CTTATTTTGTTATAAGTGCATTTTTTAAAATTTCTT | 8.54 ± 0.37 |
| ATTATCTTATGTTATTTATTTGTCCCACATTTGTTA [TGCATGCA_negctrl_site402] | 8.91 ± 0.46 |
| CATACACCCAGACACACACACATATATATATATATA [CACACA_site634] | 10.3 ± 0.17 |
| TTTTTGTTATTATGTGTGCACATATATATATATATA | 9.94 ± 0.34 |

| Sequence | gcPBM binding intensity (ln) |
| --- | --- |
| AACAAATATCCCAAAAGTACACATATAAAAAAAAAA [XGTACX_site4126] | 8.78 ± 0.42 |
| TATGTTATTATTTGTACACACACATATATATCCTTG [CACACA_site5910] | 9.62 ± 0.49 |
| TTTATTTATATAATTACACACATATATACGCAAATG [CACACA_site2794] | 8.97 ± 0.38 |
| TCATTAATTAAATCTTGTACATATTCATATATATAT [XGTACX_site2241] | 8.82 ± 0.4 |
| TTTTATTCATTAATTTGTACTTATCCTTTTGCTTAA [XGTACX_site1243] | 8.78 ± 0.51 |
| TAAGCCAAGGGATAAATAAAATAACAAAATGAAATC [GTGCAC_negctrl_site601] | 8.81 ± 0.59 |
| AAAGTATAGATGTATACACACACCAAACGTTAAAAA [CACACA_site3081] | 9.36 ± 0.38 |
| TAGTATCAATCTTATACATGCATAAAATAATTATAA [TGCATGCA_site1052] | 8.55 ± 0.38 |
| GTGTTCTTGTTATACACACACATATTTATATTTATA [CACACA_site6615] | 9.3 ± 0.37 |
| ACATTATGCCATAAATGTACACATACATATACACAG [XGTACX_site1330] | 9.04 ± 0.37 |
| TAACTAAGGAATAATACACACAGAAATATATATTTA [CACACA_site344] | 9.03 ± 0.47 |
| GATGATGTTACTTAAGTGCATATAAATTATATTTTA [GTGCAC_site9940] | 8.52 ± 0.45 |
| TAAAAAAATAAAAAAAAAAAATTATAAAATTATATA [GTGCAC_negctrl_site302] | 8.09 ± 0.57 |
| TAAAGTTTTTTTTTAACACACACATAATAAAATAAA [CACACA_site8042] | 8.74 ± 0.32 |
| AAATATATTATAAATTGTACGTTTATATATATTATT [XGTACX_site5110] | 8.69 ± 0.47 |
| GACACATATAAATATTAACACACATAATGAATTATA [CACACA_site8881] | 8.99 ± 0.42 |
| CGTTAGAGGGCTTTATCACACATGAAAAAAAAAAAA [CACACA_site5155] | 8.48 ± 0.56 |
| TTATGTATTCATAACACATGCAAATAGGATCATATA [TGCATGCA_site731] | 8.73 ± 0.38 |
| CACACGCACAGACACACACACACATATAAATATGTA [CACACA_site6300] | 9.89 ± 0.37 |
| ATATGATTTCACAAGACACACACATACAAATTTATA [CACACA_site9296] | 9.3 ± 0.35 |
| TACAACATATTCAAATGTACAAATATAGGAATGAAA [XGTACX_site2730] | 8.89 ± 0.47 |
| AACATAAAATGGATATGTACATAAAAATATATACTC [XGTACX_site7775] | 9.13 ± 0.51 |
